Reference: article PMC4336329 (PLoS ONE, 2015)
Out of some 310,000 compounds screened, about 2,200 (0.71%) showed an effect of 50% or more. The effect is printed as a negative number. The list shows a part of the results.

Target: human ether-à-go-go-related gene (hERG) potassium channel (human, UniProt Q12809)
Assay: primary screen, population patch clamp on CHO cells stably expressing hERG

Chain of human ether-à-go-go-related gene (hERG) potassium channel (Q12809 whole entry, looked up): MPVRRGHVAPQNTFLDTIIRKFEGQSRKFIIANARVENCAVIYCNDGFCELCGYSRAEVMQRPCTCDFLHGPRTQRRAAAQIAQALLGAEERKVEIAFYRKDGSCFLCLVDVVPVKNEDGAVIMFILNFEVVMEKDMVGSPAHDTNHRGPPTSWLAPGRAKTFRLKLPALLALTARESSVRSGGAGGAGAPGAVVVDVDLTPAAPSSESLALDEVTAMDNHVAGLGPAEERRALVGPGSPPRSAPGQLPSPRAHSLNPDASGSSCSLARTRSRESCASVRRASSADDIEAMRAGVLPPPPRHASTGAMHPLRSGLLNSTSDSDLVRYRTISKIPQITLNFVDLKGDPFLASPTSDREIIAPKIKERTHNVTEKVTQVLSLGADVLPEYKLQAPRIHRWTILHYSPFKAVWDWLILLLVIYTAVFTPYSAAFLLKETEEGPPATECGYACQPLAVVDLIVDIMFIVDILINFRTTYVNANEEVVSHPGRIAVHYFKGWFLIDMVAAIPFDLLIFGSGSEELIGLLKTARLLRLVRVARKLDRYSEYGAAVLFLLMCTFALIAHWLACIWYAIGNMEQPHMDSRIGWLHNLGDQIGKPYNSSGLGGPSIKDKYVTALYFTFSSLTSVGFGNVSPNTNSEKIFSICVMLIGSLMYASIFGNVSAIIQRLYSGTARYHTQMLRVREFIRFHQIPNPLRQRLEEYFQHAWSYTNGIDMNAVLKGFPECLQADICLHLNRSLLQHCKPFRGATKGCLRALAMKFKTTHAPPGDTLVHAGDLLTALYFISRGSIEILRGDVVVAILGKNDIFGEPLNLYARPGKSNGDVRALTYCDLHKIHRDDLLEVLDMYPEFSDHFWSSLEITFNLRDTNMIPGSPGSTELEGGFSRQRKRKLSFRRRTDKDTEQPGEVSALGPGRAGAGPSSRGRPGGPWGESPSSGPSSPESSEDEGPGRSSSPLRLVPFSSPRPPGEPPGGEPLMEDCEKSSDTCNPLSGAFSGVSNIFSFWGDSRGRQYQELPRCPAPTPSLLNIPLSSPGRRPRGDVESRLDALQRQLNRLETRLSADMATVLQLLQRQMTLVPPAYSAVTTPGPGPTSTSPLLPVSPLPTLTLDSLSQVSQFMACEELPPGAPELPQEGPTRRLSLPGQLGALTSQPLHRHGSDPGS

SMILES | hERG current change (%, negative = inhibition) at 1uM [%]
COc1cc(CC(=O)Oc2ccc3c(c2)OCO3)cc(OC)c1OC | 7.82
Cc1cc2cc3c(N)[nH]nc3nc2cc1C | 7.47
CCCCc1ccc(/C(C)=N/Nc2cc(N3CCOCC3)nc(C)n2)cc1 | 9.45
CN(c1cccc(Cl)c1)S(=O)(=O)c1cccc(C(=O)NN2CCOCC2)c1 | 3.07
CCCC1NC(=S)NC(C)=C1C(C)=O (centres unmarked) | 10.6
CCCCC[n+]1ccn(-c2nc3ccccc3nc2[N-]S(=O)(=O)c2ccccc2)c1 | 6.87
CN1C(=O)c2ccc(NC(=O)c3ccc(N4CCCCC4)c([N+](=O)[O-])c3)cc2C1=O | 6.44
CSc1cccc(NC(=S)NC(=O)c2cccnc2)c1 | 9.23
CC(=O)Nc1ccc(C(=O)OCC(=O)NCc2ccccc2)cc1 | 11.3
O=[N+]([O-])c1cc(F)c(N2CCOCC2)cc1N1CCCCC1 | -0.9
CCn1c(=O)cc(C(F)(F)F)[nH]c1=S | 18.6
Cc1cc(C)c2c(=O)[nH]c(SCC(=O)Nc3ccccc3)nc2n1 | 9.87
O=C(c1ccccc1)c1cc2c(cc1[N+](=O)[O-])OCCO2 | 9.76
CC(=O)C1=C(O)C(=O)N(CCCN2CCOCC2)C1c1ccccc1[N+](=O)[O-] (centres unmarked) | 10.2
COc1cccc(Nc2nc(-c3sc(C)nc3C)cs2)c1 | 15.6
COc1ccc(NC(=S)Nc2cc(C)ccn2)c(OC)c1 | 4.77
COc1cc(/C=C(\NC(C)=O)C(=O)N2CCCCC2)ccc1OC(C)=O | 4.85
Cc1cc(C(=O)CSc2n[nH]c(N)n2)c(C)n1C1CC1 | 1.71
COc1ccc(N=NC2=C(O)CC(C)(C)CC2=O)c(OC)c1 | 7.85
CCCCNS(=O)(=O)c1ccc2nc(-c3cccnc3)cc(C(=O)NC3CC3)c2c1 | 5.47
CC(C)CNC(=O)c1coc(=O)c(Br)c1 | 11.7
CCOC(=O)C1(Cc2cccc(Cl)c2)CCCN(C(=O)c2cccnc2)C1 (centres unmarked) | 4.97
O=C(CSc1nnc(COc2ccccc2)n1Cc1ccco1)Nc1ccc2c(c1)OCCO2 | 16.5

SMILES | hERG current change (%, negative = inhibition) at 1uM [%]
COc1ccc(-n2c(O)c(C(C)=NCC3CCCO3)c(=O)[nH]c2=O)cc1 (centres unmarked) | 12.1
COCCCNC(=O)c1ccc(CS(=O)(=O)c2ccccc2OC)o1 | 10.9
COc1ccc(S(=O)(=O)N(CC(=O)NCc2ccco2)C2CCCCC2)cc1OC | -11.4
Cc1cc2n(n1)C(c1ccc(O)cc1)Nc1ccccc1-2 (centres unmarked) | 1.16
COc1ccc(NC(=O)CSc2nnc(-c3ccccc3C)n2N)cc1OC | -10.5
COc1ccc(OCC(=O)Nc2ccccc2OC)cc1 | 5.65
COc1cc(C=O)ccc1OCCOCCOc1c(C)cc(Cl)cc1Cl | 5.73
CCC(=O)c1cc2c(cc1NC(=O)c1ccccc1)OCCO2 | 15.2
COc1ccc(/C=C(/NC(=O)c2cccs2)C(=O)Nc2ccc(C)cc2)cc1OC | 9.65
CCC(Sc1nc(N)cc(=O)[nH]1)C(=O)Nc1cc(C)on1 (centres unmarked) | 13.9
O=c1c(-c2ccc3c(c2)OCCO3)coc2cc(OC3OC(CO)C(O)C(O)C3O)ccc12 (centres unmarked) | 8.54
CCCn1c(C)cc(C(=O)COc2ccc(S(=O)(=O)N(CC)CC)cc2[N+](=O)[O-])c1C | -4.85
CCC(C)[C@H]1CNCCN1CCC12CC3CC(CC(C3)C1)C2 (some centres unmarked) | 14.8
CCN1CCCC1CNC(=O)c1ccccc1Cl (centres unmarked) | -5.07
c1ccc(Oc2cccc(OCCCCN3CCCC3)c2)cc1 | -39.8
CCOC(=O)C(C)Oc1cccc2c(=O)n(CC(=O)NCCc3ccc(OC)c(OC)c3)ccc12 (centres unmarked) | 2.81
CC1Cc2nc(SCC(=O)Nc3nccs3)n(Cc3ccccc3)c(=O)c2S1 (centres unmarked) | 3.53
Cc1ccccc1-n1c(O)c(C=NCCN2CCOCC2)c(=O)[nH]c1=O | 7.05
CCOc1ccc(/C=C2\SC(=S)N(C)C2=O)cc1OC | 12.1
COc1ccc(C(=O)N2CCC(C(=O)Nc3ccc4c(c3)OCO4)CC2)cc1 | -59
CC1(NC(=S)N(CCO)CCO)CCS(=O)(=O)C1 (centres unmarked) | 11
COc1ccc(-c2cc(C(=O)Nc3cc(C)on3)no2)cc1 | 17.3
Cc1cccc(OCCNC(=O)CCc2ccccc2)c1 | 20

SMILES | hERG current change (%, negative = inhibition) at 1uM [%]
COc1ccc(C2c3sc(=O)[nH]c3SCC2C(N)=O)cc1 (centres unmarked) | 9.91
COc1ccc(N2CCN(CC(=O)c3ccc(Cl)cc3)CC2)cc1 | 9.75
COc1ccc(N2CCN(c3ncnc4c3[nH]c3ccccc34)CC2)cc1 | 13.3
COc1ccc(C[C@H]2CN3C(=NC[C@H]3C)N2CCNC(=O)c2ccc(C)c(Br)c2)cc1 | -70.9
COc1ccc(C=Nc2ccc3[nH]ncc3c2)c(O)c1 | 20.6
COc1cccc(C2c3[nH]c4ccccc4c3C[C@H]3C(=O)N(c4ccccc4C(=O)N4CCC[C@H]4C(=O)O)C(=O)N23)c1 (some centres unmarked) | 11.8
CCN(CC)c1ccc2c(cc1=O)[C@@H](NC)CCc1cc(OC)c(OC)c(OC)c1-2 | 10.7
COc1ccc(C(=O)COC(=O)C(CCCCN2C(=O)C3C4C=CC(C4)C3C2=O)N2C(=O)C3C4C=CC(C4)C3C2=O)cc1 (centres unmarked) | -17.5
Cc1cc(C)n2c(SCC(=O)N3CCN(S(=O)(=O)c4ccc(Cl)cc4)CC3)nnc2n1 | 11.7
COc1ccc(S(=O)(=O)N(CC(=O)O)Cc2ccccc2)cc1OC | 14
O=C(CCN1C(=O)/C(=C/c2ccc(Cl)cc2)SC1=S)Nc1cccnc1 | 16.6
CCCCOC(=O)c1ccc(N)cc1 | 11.7
CS(=O)(=O)c1ccc2nc(NC(=O)c3ccc(S(=O)(=O)NCC4CCCO4)cc3)sc2c1 (centres unmarked) | 9.44
O=C(CSc1ccsc1[N+](=O)[O-])N1CCN(c2ccc(Cl)cc2)CC1 | 11.5
CCOc1cc(CO)ccc1OCC(=O)N1CCCCC1 | 10
O=C(CSc1nc(CCC2CCCC2)nc2ccccc12)NCc1ccc2c(c1)OCO2 | 6.82
Cc1ccc(NC(=O)CN(C)C(=O)COC(=O)c2ccc(Cl)cc2O)cc1 | 6.15
COc1cccc(C2C3CN(C)CC=C3C(C#N)=C(N)C2(C#N)C#N)c1OC (centres unmarked) | -1.85
Cc1ccoc1C(=O)N1CCCC(CCC(=O)N2CCN(c3ccccn3)CC2)C1 (centres unmarked) | 7.98
COC(=O)c1ccc(C(=O)OC)c(NC(=O)COC(=O)CC2CC3CCC2C3)c1 (centres unmarked) | 10.2
COc1ccnc(N2CCN(c3ccc(Cl)cc3)CC2)c1C#N | 16.2
NC(=O)c1ccc(NC(=O)CCCc2nc(-c3ccccc3Cl)no2)cc1 | 16.8
O=c1c2ccccc2nc(SCc2cc(F)cc3c2OCOC3)n1Cc1ccco1 | -3.42

SMILES | hERG current change (%, negative = inhibition) at 1uM [%]
COc1ccc(S(=O)Cc2ccc(C(=O)N3CCN(C(=O)c4ccco4)CC3)o2)cc1 (centres unmarked) | 13.6
CC1=C(C)CC(C(=O)NNC(=O)c2ccccc2)C(C(=O)O)C1 (centres unmarked) | 15.6
COc1cccc(C(C)N(C)Cc2nc(-c3ccoc3)oc2C)c1 (centres unmarked) | -5.55
CCc1ccc(OCC(=O)N/N=C(\C)c2ccc(O)cc2O)cc1 | 7.69
COc1ccc(Cl)cc1NC(=O)NCCN1CCCCC1 | 10.9
O=C(Nc1ccccc1)c1ccc(S(=O)(=O)NCc2ccco2)cc1 | 7.71
COc1ccc(OC)c(S(=O)(=O)Nc2cccc(O)c2)c1 | 10.3
c1ccc2oc(-c3csc(N4CCOCC4)n3)cc2c1 | 6.36
COCCNC(=O)CSc1nnc(-c2ccccc2)c(-c2ccccc2)n1 | 9.15
Cc1ccc(C(C)NC(=O)c2cccs2)cc1 (centres unmarked) | 6.94
NNc1nc(Nc2ccccc2)nc(N2CCCCC2)n1 | 12.2
COc1ccc(C(=O)c2ncc(C(F)(F)F)cc2Cl)cc1 | 6.95
CCc1c(C)nc2c(-c3ccccc3)c(C)nn2c1Nc1ccc(NC(C)=O)cc1 | 10.2
Cc1ccc(CC(=O)NCCCn2ccnc2)cc1 | 3.98
Cc1ccc(NC(=O)COC(=O)c2ccc(Cl)cc2)cc1S(=O)(=O)N(C)C | 7.25
C=CCN(CC(=O)NCc1ccc(OC)cc1)C(=O)c1csnn1 | 5.05
O=C(NC(Cc1ccccc1)C(=O)O)/C(=C\c1ccco1)NC(=O)c1ccc(Br)cc1 (centres unmarked) | 0.338
N#CCOc1ccc2oc(-c3ccco3)cc(=O)c2c1 | -6.35
COc1ccc2[nH]c(C)c(C(=O)CN(C)CC3OCCO3)c2c1 | 12.3
CCN1CCN(C(=O)c2ccc(N3CC4CC(C3)c3cccc(=O)n3C4)c([N+](=O)[O-])c2)CC1 (centres unmarked) | 14.4
